# Results published in the supplement of paper PMC8728848.
# This is one part of the list.
# B1: PX14367A-bth-493-35-493 (Bacteroides thetaiotaomicron) (protein)
# chain: VSSDQVAVAGNAERLFNGAWYNLFEYGTTYANIGYRALQCQDDMMASDVVSRPKYGFNSSYQFNDVAIPSDGRTSFAWYLIYKTIDNCNTAISIKGDSEELRQAQGQALALRAFCYLHLVQHYQFTYLKDKDAPCVPIYTEPTTSGTKPKGKSTVAQVYQQIFDDLNLAQDYLTNYVRKGDGQKFKPNTDVVNGLMARAYLLTGQWGEAAKAAEAARKGYSLMTTTAEYEGFNNISNKEWIWGSPQTLSQSDASYNFYYLDATYVGAYSSFMADPHLMDTFVKGDIRLPLFQWMREGYLGYKKFHMRSDDTADLVLMRSAEMYLIEAEAKVRDGVALDQAVAPLNTLRTARGVGNYDVTGKTKEQVIDEILMERRRELWGEGFGITDVLRNQKAVERMALSEDMQKTEVDCWQEGGSFAKRNPLGHWFLNFPDGKAFSANSSYYLYAIPEKEINANPNL
# Experiments:
# Assay in all cases: glycan array binding signal (z-score within array); higher = stronger binding
# Conditions in all cases: glycan notation: IUPAC condensed, linker removed
# [1] = molecular target: GlcNAc(b1-3)Gal(b1-4)GlcNAc(b1-3)Gal(b1-4)GlcNAc(b1-2)Man(a1-3)[GlcNAc(b1-3)Gal(b1-4)GlcNAc(b1-3)Gal(b1-4)GlcNAc(b1-2)Man(a1-6)]Man(b1-4)GlcNAc(b1-4)[Fuc(a1-6)]GlcNAc
# Method in brief: (§1)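 The binding signal is a Z-score computed within each array and averaged over linkers. Arrays of the same protein sequence at different concentrations or buffers were also averaged together. Data originate from 3228 arrays in the Consortium for Functional Glycomics database, kept only where the protein sequence was available.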
# [2] = molecular target: GlcNAc(b1-3)Gal(b1-4)GlcNAc(b1-3)Gal(b1-4)GlcNAc(b1-2)[GlcNAc(b1-3)Gal(b1-4)GlcNAc(b1-3)Gal(b1-4)GlcNAc(b1-6)]Man(a1-6)[GlcNAc(b1-3)Gal(b1-4)GlcNAc(b1-3)Gal(b1-4)GlcNAc(b1-2)Man(a1-3)]Man(b1-4)GlcNAc(b1-4)[Fuc(a1-6)]GlcNAc
# Method in brief: as §1
# [3] = molecular target: GlcNAc(b1-3)Gal(b1-4)GlcNAc(b1-3)Gal(b1-4)GlcNAc(b1-3)Gal(b1-4)GlcNAc(b1-2)Man(a1-3)[GlcNAc(b1-3)Gal(b1-4)GlcNAc(b1-3)Gal(b1-4)GlcNAc(b1-3)Gal(b1-4)GlcNAc(b1-2)Man(a1-6)]Man(b1-4)GlcNAc(b1-4)GlcNAc
# Method in brief: as §1
# [4] = molecular target: GlcNAc(b1-3)Gal(b1-4)GlcNAc(b1-3)Gal(b1-4)GlcNAc(b1-3)Gal(b1-4)GlcNAc(b1-2)Man(a1-3)[GlcNAc(b1-3)Gal(b1-4)GlcNAc(b1-3)Gal(b1-4)GlcNAc(b1-3)Gal(b1-4)GlcNAc(b1-2)Man(a1-6)]Man(b1-4)GlcNAc(b1-4)[Fuc(a1-6)]GlcNAc
# Method in brief: as §1
# [5] = molecular target: GlcNAc(b1-3)Gal(b1-4)GlcNAc(b1-3)Gal(b1-4)GlcNAc(b1-3)Gal(b1-4)GlcNAc(b1-2)[GlcNAc(b1-3)Gal(b1-4)GlcNAc(b1-3)Gal(b1-4)GlcNAc(b1-3)Gal(b1-4)GlcNAc(b1-6)]Man(a1-6)[GlcNAc(b1-3)Gal(b1-4)GlcNAc(b1-3)Gal(b1-4)GlcNAc(b1-3)Gal(b1-4)GlcNAc(b1-2)Man(a1-3)]Man(b1-4)GlcNAc(b1-4)[Fuc(a1-6)]GlcNAc
# Method in brief: as §1
# [6] = molecular target: GlcNAc(b1-3)Gal(b1-4)GlcNAc(b1-3)Gal(b1-4)GlcNAc(b1-3)Gal(b1-4)GlcNAc(b1-3)Gal(b1-4)GlcNAc(b1-2)Man(a1-3)[GlcNAc(b1-3)Gal(b1-4)GlcNAc(b1-3)Gal(b1-4)GlcNAc(b1-3)Gal(b1-4)GlcNAc(b1-3)Gal(b1-4)GlcNAc(b1-2)Man(a1-6)]Man(b1-4)GlcNAc(b1-4)GlcNAc
# Method in brief: as §1
# [7] = molecular target: GlcNAc(b1-3)Gal(b1-4)GlcNAc(b1-3)Gal(b1-4)GlcNAc(b1-3)Gal(b1-4)GlcNAc(b1-3)Gal(b1-4)GlcNAc(b1-2)Man(a1-3)[GlcNAc(b1-3)Gal(b1-4)GlcNAc(b1-3)Gal(b1-4)GlcNAc(b1-3)Gal(b1-4)GlcNAc(b1-3)Gal(b1-4)GlcNAc(b1-2)Man(a1-6)]Man(b1-4)GlcNAc(b1-4)[Fuc(a1-6)]GlcNAc
# Method in brief: as §1
# [8] = molecular target: GlcNAc(b1-3)Gal(b1-4)GlcNAc(b1-3)Gal(b1-4)GlcNAc(b1-3)Gal(b1-4)GlcNAc(b1-3)Gal(b1-4)GlcNAc(b1-2)[GlcNAc(b1-3)Gal(b1-4)GlcNAc(b1-3)Gal(b1-4)GlcNAc(b1-3)Gal(b1-4)GlcNAc(b1-3)Gal(b1-4)GlcNAc(b1-6)]Man(a1-6)[GlcNAc(b1-3)Gal(b1-4)GlcNAc(b1-3)Gal(b1-4)GlcNAc(b1-3)Gal(b1-4)GlcNAc(b1-3)Gal(b1-4)GlcNAc(b1-2)Man(a1-3)]Man(b1-4)GlcNAc(b1-4)[Fuc(a1-6)]GlcNAc
# Method in brief: as §1
# [9] = molecular target: GlcNAc(b1-3)Gal(b1-4)GlcNAc(b1-3)Gal(b1-4)GlcNAc(b1-3)GalNAc
# Method in brief: as §1
# [10] = molecular target: GlcNAc(b1-3)Gal(b1-4)GlcNAc(b1-3)GalNAc
# Method in brief: as §1
# [11] = molecular target: GlcNAc(b1-3)Gal(b1-4)GlcNAc(b1-3)[GlcNAc(b1-3)Gal(b1-4)GlcNAc(b1-3)]GalNAc
# Method in brief: as §1
# [12] = molecular target: GlcNAc(b1-3)Gal(b1-4)GlcNAc(b1-6)[Gal(b1-3)]GalNAc
# Method in brief: as §1
# [13] = molecular target: GlcNAc(b1-3)Gal(b1-4)GlcNAc(b1-6)[GlcNAc(b1-3)Gal(b1-3)]GalNAc
# Method in brief: as §1
# [14] = molecular target: GlcNAc(b1-3)Gal(b1-4)GlcNAc(b1-6)[GlcNAc(b1-3)]Gal(b1-4)GlcNAc
# Method in brief: as §1
# GlcNAc(b1-3)GalNAc = molecular target: GlcNAc(b1-3)GalNAc
# Method in brief: as §1
# GlcNAc(b1-3)Man = molecular target: GlcNAc(b1-3)Man
# Method in brief: as §1
# [15] = molecular target: GlcNAc(b1-3)[GlcNAc(b1-4)][GlcNAc(b1-6)]GlcNAc
# Method in brief: as §1
# [16] = molecular target: GlcNAc(b1-3)[GlcNAc(b1-6)]Gal(b1-4)GlcNAc
# Method in brief: as §1
# [17] = molecular target: GlcNAc(b1-3)[GlcNAc(b1-6)]GalNAc
# Method in brief: as §1
# [18] = molecular target: GlcNAc(b1-4)Gal(b1-4)GlcNAc
# Method in brief: as §1
# GlcNAc(b1-4)GlcNAc = molecular target: GlcNAc(b1-4)GlcNAc
# Method in brief: as §1
# [19] = molecular target: GlcNAc(b1-4)GlcNAc(b1-4)GlcNAc
# Method in brief: as §1
# [20] = molecular target: GlcNAc(b1-4)GlcNAc(b1-4)GlcNAc(b1-4)GlcNAc(b1-4)GlcNAc
# Method in brief: as §1
# [21] = molecular target: GlcNAc(b1-4)GlcNAc(b1-4)GlcNAc(b1-4)GlcNAc(b1-4)GlcNAc(b1-4)GlcNAc
# Method in brief: as §1
# [22] = molecular target: GlcNAc(b1-4)[GlcNAc(b1-6)]GalNAc
# Method in brief: as §1
# [23] = molecular target: GlcNAc(b1-6)Gal(b1-4)GlcNAc
# Method in brief: as §1
# GlcNAc(b1-6)GalNAc = molecular target: GlcNAc(b1-6)GalNAc
# Method in brief: as §1
# [24] = molecular target: GlcNAc6S(b1-3)Gal(b1-4)GlcNAc
# Method in brief: as §1
# Kdn(a2-3)Gal(b1-3)GalNAc = molecular target: Kdn(a2-3)Gal(b1-3)GalNAc
# Method in brief: as §1
# Kdn(a2-3)Gal(b1-3)GlcNAc = molecular target: Kdn(a2-3)Gal(b1-3)GlcNAc
# Method in brief: as §1
# Kdn(a2-3)Gal(b1-4)Glc = molecular target: Kdn(a2-3)Gal(b1-4)Glc
# Method in brief: as §1
# Kdn(a2-3)Gal(b1-4)GlcNAc = molecular target: Kdn(a2-3)Gal(b1-4)GlcNAc
# Method in brief: as §1
# [25] = molecular target: Kdn(a2-3)Gal(b1-4)[Fuc(a1-3)]GlcNAc
# Method in brief: as §1
# Kdn(a2-6)Gal(b1-4)GlcNAc = molecular target: Kdn(a2-6)Gal(b1-4)GlcNAc
# Method in brief: as §1
# [26] = molecular target: Man(a1-2)Man(a1-2)Man(a1-3)Man
# Method in brief: as §1
# [27] = molecular target: Man(a1-2)Man(a1-2)Man(a1-6)[Man(a1-3)]Man
# Method in brief: as §1
# Man(a1-2)Man(a1-3)Man = molecular target: Man(a1-2)Man(a1-3)Man
# Method in brief: as §1
# [28] = molecular target: Man(a1-2)Man(a1-3)[Man(a1-2)Man(a1-6)]Man
# Method in brief: as §1
binder,measurement,setting,value
B1,glycan array binding signal (z-score),[1],0.088
same,glycan array binding signal (z-score),[2],-0.347
same,glycan array binding signal (z-score),[3],-0.507
same,glycan array binding signal (z-score),[4],-0.073
same,glycan array binding signal (z-score),[5],0.046
same,glycan array binding signal (z-score),[6],-0.11
same,glycan array binding signal (z-score),[7],-0.036
same,glycan array binding signal (z-score),[8],-0.122
same,glycan array binding signal (z-score),[9],-0.704
same,glycan array binding signal (z-score),[10],-0.007
same,glycan array binding signal (z-score),[11],0.349
same,glycan array binding signal (z-score),[12],0.536
same,glycan array binding signal (z-score),[13],0.046
same,glycan array binding signal (z-score),[14],-0.7
same,glycan array binding signal (z-score),GlcNAc(b1-3)GalNAc,-0.382
same,glycan array binding signal (z-score),GlcNAc(b1-3)Man,-0.013
same,glycan array binding signal (z-score),[15],-0.618
same,glycan array binding signal (z-score),[16],-0.591
same,glycan array binding signal (z-score),[17],-0.437
same,glycan array binding signal (z-score),[18],-0.18
same,glycan array binding signal (z-score),GlcNAc(b1-4)GlcNAc,-0.313
same,glycan array binding signal (z-score),[19],-0.384
same,glycan array binding signal (z-score),[20],-0.597
same,glycan array binding signal (z-score),[21],-0.312
same,glycan array binding signal (z-score),[22],0.088
same,glycan array binding signal (z-score),[23],-0.526
same,glycan array binding signal (z-score),GlcNAc(b1-6)GalNAc,-0.498
same,glycan array binding signal (z-score),[24],-0.213
same,glycan array binding signal (z-score),Kdn(a2-3)Gal(b1-3)GalNAc,0.025
same,glycan array binding signal (z-score),Kdn(a2-3)Gal(b1-3)GlcNAc,-0.708
same,glycan array binding signal (z-score),Kdn(a2-3)Gal(b1-4)Glc,-0.558
same,glycan array binding signal (z-score),Kdn(a2-3)Gal(b1-4)GlcNAc,-0.675
same,glycan array binding signal (z-score),[25],-0.445
same,glycan array binding signal (z-score),Kdn(a2-6)Gal(b1-4)GlcNAc,-0.387
same,glycan array binding signal (z-score),[26],-0.464
same,glycan array binding signal (z-score),[27],-0.257
same,glycan array binding signal (z-score),Man(a1-2)Man(a1-3)Man,0.44
same,glycan array binding signal (z-score),[28],-0.301
